This note sets out measurements from the supplement of paper PMC12423691.

First the molecules themselves.
B1: ETV6, P41212 (protein)
chain: MSETPAQCSIKQERISYTPPESPVPSYASSTPLHVPVPRALRMEEDSIRLPAHLRLQPIYWSRDDVAQWLKWAENEFSLRPIDSNTFEMNGKALLLLTKEDFRYRSPHSGDVLYELLQHILKQRKPRILFSPFFHPGNSIHTQPEVILHQNHEEDNCVQRTPRPSVDNVHHNPPTIELLHRSRSPITTNHRPSPDPEQRPLRSPLDNMIRRLSPAERAQGPRPHQENNHQESYPLSVSPMENNHCPASSESHPKPSSPRQESTRVIQLMPSPIMHPLILNPRHSVDFKQSRLSEDGLHREGKPINLSHREDLAYMNHIMVSVSPPEEHAMPIGRIADCRLLWDYVYQLLSDSRYENFIRWEDKESKIFRIVDPNGLARLWGNHKNRTNMTYEKMSRALRHYYKLNIIRKEPGQRLLFRFMKTPDEIMSGRTDRLEHLESQELDEQIYQEDEC
B2: TNFSF18, Q9UNG2 (protein)
chain: MCLSHLENMPLSHSRTQGAQRSSWKLWLFCSIVMLLFLCSFSWLIFIFLQLETAKEPCMAKFGPLPSKWQMASSEPPCVNKVSDWKLEILQNGLYLIYGQVAPNANYNDVAPFEVRLYKNKDMIQTLTNKSKIQNVGGTYELHVGDTIDLIFNSEHQVLKNNTYWGIILLANPQFIS
B3: IRF7, Q92985 (protein)
chain: MALAPERAAPRVLFGEWLLGEISSGCYEGLQWLDEARTCFRVPWKHFARKDLSEADARIFKAWAVARGRWPPSSRGGGPPPEAETAERAGWKTNFRCALRSTRRFVMLRDNSGDPADPHKVYALSRELCWREGPGTDQTEAEAPAAVPPPQGGPPGPFLAHTHAGLQAPGPLPAPAGDKGDLLLQAVQQSCLADHLLTASWGADPVPTKAPGEGQEGLPLTGACAGGPGLPAGELYGWAVETTPSPGPQPAALTTGEAAAPESPHQAEPYLSPSPSACTAVQEPSPGALDVTIMYKGRTVLQKVVGHPSCTFLYGPPDPAVRATDPQQVAFPSPAELPDQKQLRYTEELLRHVAPGLHLELRGPQLWARRMGKCKVYWEVGGPPGSASPSTPACLLPRNCDTPIFDFRVFFQELVEFRARQRRGSPRYTIYLGFGQDLSAGRPKEKSLVLVKLEPWLCRVHLEGTQREGVSSLDSSSLSLCLSSANSLYDDIECFLMELEQPA
B4: NR1D2, Q14995 (protein)
chain: MEVNAGGVIAYISSSSSASSPASCHSEGSENSFQSSSSSVPSSPNSSNSDTNGNPKNGDLANIEGILKNDRIDCSMKTSKSSAPGMTKSHSGVTKFSGMVLLCKVCGDVASGFHYGVHACEGCKGFFRRSIQQNIQYKKCLKNENCSIMRMNRNRCQQCRFKKCLSVGMSRDAVRFGRIPKREKQRMLIEMQSAMKTMMNSQFSGHLQNDTLVEHHEQTALPAQEQLRPKPQLEQENIKSSSPPSSDFAKEEVIGMVTRAHKDTFMYNQEQQENSAESMQPQRGERIPKNMEQYNLNHDHCGNGLSSHFPCSESQQHLNGQFKGRNIMHYPNGHAICIANGHCMNFSNAYTQRVCDRVPIDGFSQNENKNSYLCNTGGRMHLVCPMSKSPYVDPHKSGHEIWEEFSMSFTPAVKEVVEFAKRIPGFRDLSQHDQVNLLKAGTFEVLMVRFASLFDAKERTVTFLSGKKYSVDDLHSMGAGDLLNSMFEFSEKLNALQLSDEEMSLFTAVVLVSADRSGIENVNSVEALQETLIRALRTLIMKNHPNEASIFTKLLLKLPDLRSLNNMHSEELLAFKVHP
B5: ZC3H12A, Q5D1E8 (protein)
chain: MSGPCGEKPVLEASPTMSLWEFEDSHSRQGTPRPGQELAAEEASALELQMKVDFFRKLGYSSTEIHSVLQKLGVQADTNTVLGELVKHGTATERERQTSPDPCPQLPLVPRGGGTPKAPNLEPPLPEEEKEGSDLRPVVIDGSNVAMSHGNKEVFSCRGILLAVNWFLERGHTDITVFVPSWRKEQPRPDVPITDQHILRELEKKKILVFTPSRRVGGKRVVCYDDRFIVKLAYESDGIVVSNDTYRDLQGERQEWKRFIEERLLMYSFVNDKFMPPDDPLGRHGPSLDNFLRKKPLTLEHRKQPCPYGRKCTYGIKCRFFHPERPSCPQRSVADELRANALLSPPRAPSKDKNGRRPSPSSQSSSLLTESEQCSLDGKKLGAQASPGSRQEGLTQTYAPSGRSLAPSGGSGSSFGPTDWLPQTLDSLPYVSQDCLDSGIGSLESQMSELWGVRGGGPGEPGPPRAPYTGYSPYGSELPATAAFSAFGRAMGAGHFSVPADYPPAPPAFPPREYWSEPYPLPPPTSVLQEPPVQSPGAGRSPWGRAGSLAKEQASVYTKLCGVFPPHLVEAVMGRFPQLLDPQQLAAEILSYKSQHPSE
B6: RNF2, Q99496 (protein)
chain: MSQAVQTNGTQPLSKTWELSLYELQRTPQEAITDGLEIVVSPRSLHSELMCPICLDMLKNTMTTKECLHRFCADCIITALRSGNKECPTCRKKLVSKRSLRPDPNFDALISKIYPSRDEYEAHQERVLARINKHNNQQALSHSIEEGLKIQAMNRLQRGKKQQIENGSGAEDNGDSSHCSNASTHSNQEAGPSNKRTKTSDDSGLELDNNNAAMAIDPVMDGASEIELVFRPHPTLMEKDDSAQTRYIKTSGNATVDHLSKYLAVRLALEELRSKGESNQMNLDTASEKQYTIYIATASGQFTVLNGSFSLELVSEKYWKVNKPMELYYAPTKEHK
B7: TCF15, Q12870 (protein)
chain: MAFALLRPVGAHVLYPDVRLLSEDEENRSESDASDQSFGCCEGPEAARRGPGPGGGRRAGGGGGAGPVVVVRQRQAANARERDRTQSVNTAFTALRTLIPTEPVDRKLSKIETVRLASSYIAHLANVLLLGDSADDGQPCFRAAGSAKGAVPAAADGGRQPRSICTFCLSNQRKGGGRRDLGGSCLKVRGVAPLRGPRR
B8: ERC1, Q8IUD2 (protein)
chain: MYGSARSVGKVEPSSQSPGRSPRLPRSPRLGHRRTNSTGGSSGSSVGGGSGKTLSMENIQSLNAAYATSGPMYLSDHENVGSETPKSTMTLGRSGGRLPYGVRMTAMGSSPNIASSGVASDTIAFGEHHLPPVSMASTVPHSLRQARDNTIMDLQTQLKEVLRENDLLRKDVEVKESKLSSSMNSIKTFWSPELKKERALRKDEASKITIWKEQYRVVQEENQHMQMTIQALQDELRIQRDLNQLFQQDSSSRTGEPCVAELTEENFQRLHAEHERQAKELFLLRKTLEEMELRIETQKQTLNARDESIKKLLEMLQSKGLSAKATEEDHERTRRLAEAEMHVHHLESLLEQKEKENSMLREEMHRRFENAPDSAKTKALQTVIEMKDSKISSMERGLRDLEEEIQMLKSNGALSTEEREEEMKQMEVYRSHSKFMKNKVEQLKEELSSKEAQWEELKKKAAGLQAEIGQVKQELSRKDTELLALQTKLETLTNQFSDSKQHIEVLKESLTAKEQRAAILQTEVDALRLRLEEKETMLNKKTKQIQDMAEEKGTQAGEIHDLKDMLDVKERKVNVLQKKIENLQEQLRDKEKQMSSLKERVKSLQADTTNTDTALTTLEEALAEKERTIERLKEQRDRDEREKQEEIDNYKKDLKDLKEKVSLLQGDLSEKEASLLDLKEHASSLASSGLKKDSRLKTLEIALEQKKEECLKMESQLKKAHEAALEARASPEMSDRIQHLEREITRYKDESSKAQAEVDRLLEILKEVENEKNDKDKKIAELERQVKDQNKKVANLKHKEQVEKKKSAQMLEEARRREDNLNDSSQQLQDSLRKKDDRIEELEEALRESVQITAEREMVLAQEESARTNAEKQVEELLMAMEKVKQELESMKAKLSSTQQSLAEKETHLTNLRAERRKHLEEVLEMKQEALLAAISEKDANIALLELSSSKKKTQEEVAALKREKDRLVQQLKQQTQNRMKLMADNYEDDHFKSSHSNQTNHKPSPDQIIQPLLELDQNRSKLKLYIGHLTTLCHDRDPLILRGLTPPASYNLDDDQAAWENELQKMTRGQLQDELEKGERDNAELQEFANAILQQIADHCPDILEQVVNALEESS

Some of the results follow. Binding of human transcription factors and regulators to the viral nucleoprotein by AlphaScreen, crude cell-free proteins, amounts not normalised, one pass. Fold of the Venus control; higher = more signal. No active / inactive call. Single-pass screen; sequences are the whole Swiss-Prot entries looked up by name.

The target of the assay is nucleoprotein N of Crimean-Congo hemorrhagic fever virus. The assay can be described thus: AlphaScreen luminescence signal relative to Venus negative control (fold); higher = stronger binding to CCHFV N. As to the method:
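AlphaScreen binding of cell-free made, FLAG-GST-tagged human transcription factors and regulators (crude translation products) to biotinylated N protein; signal as fold of the FLAG-GST-Venus control. One pass.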
(In general: Alpha assays give light when donor and acceptor beads are brought close together.)
In turn, B1 registered an AlphaScreen luminescence signal of 2.23.

B2 registered an AlphaScreen luminescence signal of 2.28.

For the molecule B3, the AlphaScreen luminescence signal is 2.33.

Regarding B4, the AlphaScreen luminescence signal was 1.86.

As for B5, the AlphaScreen luminescence signal came out at 5.91.

Regarding B6, the AlphaScreen luminescence signal was found to be 2.09.

Consider B7, for which the AlphaScreen luminescence signal came to 3.86.

Consider B8, for which the AlphaScreen luminescence signal was 1.35.
